# From the supplement of paper PMC9446081
# Screen size: about 39,000 compounds; about 220 (0.56%) showed activity. The list shows a part of the results.
# System: Escherichia coli K-12 BW25113
# Assay: relative growth (OD600 normalised to plate interquartile mean) (fraction); higher = less growth inhibition, active = 0.2 or less
# Conditions: 50 µM; LB; incubation time: overnight (16-24 h)
# 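Further: static incubation at 37 °C against the wild-type strain, values averaged over two biological replicates.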
row,SMILES,relative growth
1,CCO[C@@H]1OC(C(=O)N2CCOCC2)=C[C@H](C2CC2)[C@H]1CCCOC(=O)NCCCCCC(=O)NO,inactive: 0.984
2,CS(=O)(=O)N1C[C@H]2CN(C(=O)c3cnccn3)C[C@@H]2C1,inactive: 0.982
3,C[C@H](CO)N1C[C@H](C)[C@H](CN(C)C(=O)NC2CCCCC2)Oc2c(NC(=O)C3CC3)cccc2C1=O,inactive: 1.02
4,NCc1cccc(N2CCCC2)c1,inactive: 1.01
5,O=C(C[C@H]1CC[C@@H]2[C@H](COC[C@@H](O)CN2S(=O)(=O)c2ccccc2)O1)NCc1ccc2c(c1)OCO2,inactive: 0.989
6,CN1C(=O)c2cc(NC(=O)C3CCOCC3)ccc2OC[C@@H]2O[C@@H](CC(=O)NCc3ccc4c(c3)OCO4)CC[C@H]21,inactive: 0.983
7,Cc1noc(C)c1S(=O)(=O)Nc1ccc2c(c1)C(=O)N([C@@H](C)CO)C[C@H](C)[C@H](CN(C)S(=O)(=O)c1cn(C)cn1)OCCCC[C@@H](C)O2,inactive: 0.988
8,COC(=O)[C@H](Cc1ccccc1)N1CC2=C[C@@H](C3CC3)n3c(=O)n(C)c(=O)n3[C@H]2[C@@H]1[C@@H](O)CCn1cc(COc2ccccc2/C=C(C)/C=C/C(=O)NO)nn1,inactive: 0.963
9,COc1cccc(NC(=O)N(C)C[C@H]2Oc3cc(C#Cc4ccncc4)ccc3S(=O)(=O)N([C@H](C)CO)C[C@@H]2C)c1,inactive: 0.989
10,C[C@@H]1CCCCO[C@@H](CN(C)Cc2ccc(Cl)c(Cl)c2)[C@@H](C)CN([C@@H](C)CO)C(=O)c2cc(NC(=O)c3ccccc3)ccc2O1,inactive: 0.992
11,COc1ccc(S(=O)(=O)Nc2ccc3c(c2)C(=O)N([C@@H](C)CO)C[C@@H](C)[C@@H](CN(C)C(=O)Nc2ccc4c(c2)OCO4)OCCCC[C@H](C)O3)cc1,inactive: 1.03
12,C[C@@H]1CCCCO[C@H](CN(C)C(=O)Nc2ccccc2)[C@H](C)CN([C@@H](C)CO)C(=O)c2cc(NC(=O)Nc3ccc(F)cc3)ccc2O1,inactive: 1.03
13,Cc1ccc(S(=O)(=O)Nc2cccc3c2O[C@@H](CN(C)C(=O)Nc2ccc(C(F)(F)F)cc2)[C@H](C)CN([C@@H](C)CO)C3=O)cc1,inactive: 0.969
14,O=C1C[C@@H](c2ccc(O[C@@H]3O[C@H](CO)[C@@H](O)[C@H](O)[C@H]3O)cc2)Oc2cc(O)ccc21,inactive: 0.995
15,C[C@@H]1CCCCO[C@H](CN(C)Cc2ccncc2)[C@@H](C)CN([C@H](C)CO)C(=O)c2cc(NS(=O)(=O)c3ccc(Cl)cc3)ccc2O1,inactive: 1.01
16,COc1ccc(C#Cc2cnc3c(c2)C(=O)N([C@@H](C)CO)C[C@H](C)[C@H](CN(C)C(=O)CN(C)C)O3)cc1,inactive: 1
17,COc1ccc(NC(=O)N(C)C[C@@H]2OCCCC[C@H](C)Oc3ccc(NC(=O)CCC(F)(F)F)cc3C(=O)N([C@H](C)CO)C[C@H]2C)cc1,inactive: 0.754
18,C[C@H](CO)N1C[C@H](C)[C@H](CN(C)S(=O)(=O)c2ccc(F)cc2)Oc2ccc(NS(=O)(=O)c3ccccc3)cc2C1=O,inactive: 0.941
19,C[C@@H]1CN([C@H](C)CO)C(=O)c2cc(C#CC3(O)CCCC3)cnc2O[C@H]1CN(C)C(=O)Cc1ccccc1,inactive: 1.02
20,C[C@H]1CN([C@@H](C)CO)C(=O)c2cc(C#CCc3ccccc3)cnc2O[C@@H]1CN(C)C(=O)C1CCOCC1,inactive: 1.03
21,O=c1c(-c2ccc(O)cc2)coc2c([C@H]3O[C@H](CO)[C@@H](O)[C@H](O)[C@H]3O)c(O)ccc12,inactive: 0.996

row,SMILES,relative growth
1,C[C@@H]1CCCCO[C@H](CN(C)C)[C@@H](C)CN([C@H](C)CO)C(=O)c2cc(NC(=O)Nc3cccc4ccccc34)ccc2O1,inactive: 0.99
2,Cc1noc(C)c1NC(=O)Nc1ccc2c(c1)C(=O)N([C@@H](C)CO)C[C@H](C)[C@H](CN(C)Cc1ccc(-c3ccccc3)cc1)O2,inactive: 1.01
3,C[C@@H]1CCCCO[C@H](CN(C)S(=O)(=O)c2ccc(Cl)cc2)[C@H](C)CN([C@@H](C)CO)C(=O)c2cc(NS(=O)(=O)c3ccc(F)cc3)ccc2O1,inactive: 1
4,COC(=O)C1=C(C)NC(C)=C(C(=O)OC)C1,inactive: 1
5,O=S(=O)(N1CCOCC1)N1CCCN(S(=O)(=O)N2CCOCC2)CC1,inactive: 0.988
6,C[C@@H]1CN([C@H](C)CO)C(=O)Cc2cc(NS(=O)(=O)c3cn(C)cn3)ccc2O[C@@H]1CN(C)CC1CC1,inactive: 0.985
7,C[C@@H]1CCCCO[C@H](CN(C)C(=O)Nc2ccc(F)cc2)[C@@H](C)CN([C@@H](C)CO)C(=O)c2cc(NC(=O)CCC(F)(F)F)ccc2O1,inactive: 0.965
8,COc1ccc(C(=O)NCC#N)cc1,inactive: 1.03
9,COc1cc(C(=O)OCCN2CCCN(CCOC(=O)c3cc(OC)c(OC)c(OC)c3)CC2)cc(OC)c1OC,inactive: 0.983
10,C[C@@H]1CCCCO[C@H](CN(C)CC2CC2)[C@H](C)CN([C@@H](C)CO)C(=O)c2cc(NS(=O)(=O)c3cn(C)cn3)ccc2O1,inactive: 1
11,C[C@@H]1CN([C@@H](C)CO)C(=O)c2cc(NC(=O)NC3CCCCC3)ccc2O[C@@H](C)CCCCO[C@@H]1CN(C)S(=O)(=O)c1ccc(F)cc1,inactive: 1.03
12,C[C@@H]1CN([C@@H](C)CO)C(=O)c2cc(NC(=O)Nc3ccc(F)cc3)ccc2O[C@@H](C)CCCCO[C@H]1CN(C)S(=O)(=O)c1ccccc1,inactive: 1.05
13,C[C@@H]1CN([C@@H](C)CO)S(=O)(=O)c2ccc(-c3cccnc3)cc2O[C@@H]1CN(C)C(=O)c1ccc2c(c1)OCO2,inactive: 1.02
14,O=C(O)c1n[nH]c2c1C[C@H]1C[C@@H]21,inactive: 0.977
15,C[C@H]1CN([C@@H](C)CO)C(=O)c2cc(C3=CCCC3)cnc2O[C@H]1CN(C)S(=O)(=O)c1cn(C)cn1,inactive: 1.03
16,C[C@@H]1CCCCO[C@@H](CN(C)Cc2ccc3c(c2)OCO3)[C@H](C)CN([C@H](C)CO)C(=O)c2cc(NC(=O)NC3CCCCC3)ccc2O1,inactive: 1.02
17,C[C@@H]1CN([C@@H](C)CO)C(=O)c2c(c3ccccc3n2C)-c2ccccc2CO[C@@H]1CN(C)S(C)(=O)=O,inactive: 0.976
18,C[C@@H]1CCCCO[C@@H](CN(C)C(=O)NC2CCCCC2)[C@H](C)CN([C@@H](C)CO)C(=O)c2cc(NS(=O)(=O)c3ccccc3)ccc2O1,inactive: 1.01
19,COCCNC(=O)C[C@@H]1C[C@@H]2c3cc(NC(=O)COC)ccc3O[C@@H]2[C@@H](CO)O1,inactive: 0.924
20,C[C@@H]1CCCCO[C@@H](CN(C)S(C)(=O)=O)[C@@H](C)CN([C@H](C)CO)C(=O)c2cc(NS(=O)(=O)c3ccccc3)ccc2O1,inactive: 0.988
21,CNC[C@H]1OCCCC[C@@H](C)Oc2ccc(NC(=O)c3ccncc3)cc2C(=O)N([C@@H](C)CO)C[C@H]1C,inactive: 1.01

row,SMILES,relative growth
1,C[C@@H]1CN([C@@H](C)CO)C(=O)c2cc(NS(=O)(=O)c3cccs3)ccc2O[C@@H]1CN(C)Cc1ccc(Cl)c(Cl)c1,inactive: 0.978
2,CN1CCN(C(c2ccccc2)c2ccccc2)CC1,inactive: 1.13
3,C[C@@H]1CN([C@H](C)CO)C(=O)c2cccc(NC(=O)C3CC3)c2O[C@H]1CN(C)S(=O)(=O)c1cn(C)cn1,inactive: 1.01
4,CC(C)NC(=O)N(C)C[C@@H]1OCCCC[C@H](C)Oc2ccc(NC(=O)Nc3cccc4ccccc34)cc2C(=O)N([C@@H](C)CO)C[C@H]1C,inactive: 0.988
5,COc1ccc(S(=O)(=O)N[C@H]2CC[C@H](CC(=O)N3CCN(c4ccccc4)CC3)O[C@@H]2CO)cc1,inactive: 0.997
6,CC[C@@H](N)Cn1c(=O)oc2ccccc21,inactive: 0.932
7,C[C@H]1CN([C@@H](C)CO)C(=O)Cc2cc(NS(=O)(=O)c3cn(C)cn3)ccc2O[C@@H]1CN(C)Cc1ccc(C(=O)Nc2ccccc2N)cc1,inactive: 1.03
8,COc1ccc(S(=O)(=O)N(C)C[C@@H]2Oc3c(NC(=O)C4CCOCC4)cccc3C(=O)N([C@H](C)CO)C[C@@H]2C)cc1,inactive: 0.951
9,COc1ccc(S(=O)(=O)N(C)C[C@@H]2OCCCC[C@H](C)Oc3ccc(NC(=O)Nc4ccc(F)cc4)cc3C(=O)N([C@@H](C)CO)C[C@H]2C)cc1,inactive: 1.01
10,Cc1cc(=S)oc2ccccc12,inactive: 0.943
11,CO[C@H]1CN(C)C(=O)c2ccc(NC(=O)c3ccc(F)cc3)cc2OC[C@@H](C)N(C(=O)CN(C)C)C[C@H]1C,inactive: 0.949
12,Cc1noc(C)c1S(=O)(=O)Nc1cccc2c1O[C@@H](CN(C)CC1CC1)[C@@H](C)CN([C@H](C)CO)C2=O,inactive: 1.02
13,COCCNC(=O)C[C@H]1C[C@H]2c3cc(NS(C)(=O)=O)ccc3O[C@H]2[C@H](CO)O1,inactive: 1.01
14,CN(CC(=O)O)C(=N)N,inactive: 1.01
15,CO[C@@H]1CN(C)C(=O)c2cc(NS(=O)(=O)c3cn(C)cn3)ccc2OC[C@@H](C)N(CC2CC2)C[C@H]1C,inactive: 0.994
16,O=C1CO[C@@H](c2ccccc2)CN1,inactive: 1.01
17,COc1ccc(CN(C)C[C@H]2OCCCC[C@H](C)Oc3ccc(NS(=O)(=O)c4cccs4)cc3C(=O)N([C@H](C)CO)C[C@H]2C)cc1,inactive: 0.997
18,C[C@H]1CN([C@@H](C)CO)C(=O)Cc2cc(NC(=O)Nc3ccc(C(F)(F)F)cc3)ccc2O[C@H]1CN(C)Cc1ccc(C(F)(F)F)cc1,inactive: 1.02
19,C[C@@H]1CCCCO[C@@H](CN(C)S(=O)(=O)c2ccc(Cl)cc2)[C@H](C)CN([C@H](C)CO)C(=O)c2cc(NC(=O)Nc3ccc(C(F)(F)F)cc3)ccc2O1,inactive: 1.03
